# Test results as given in the supplement of paper PMC3334620.
# In all, about 33,000 sequences were measured (“E-score (-0.5 to 0.5)”: median about -0.053, highest 2% from about 0.37 on). The list shows a part of the results.
# Molecular target: Hap1 (UniProt P0CE41)
# Experiment: PBM E-score (8-mer binding enrichment) (E-score (-0.5 to 0.5)); higher = stronger / more preferred TF binding; most listed sequences are background and not binding sites
# Settings: protein concentration: 200 nM; construct: GST-DNA-binding domain
# Summary of the method: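 Detection of bound protein used fluorescent anti-GST, with scans normalised by masliner. The proteins were GST-tagged yeast transcription factors applied at about 100-200 nM to universal all-10-mer Agilent arrays made double-stranded by primer extension. Each ungapped eight-base word, pooled with its reverse complement, was scored with an E-score from the Universal PBM Analysis Suite.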
# UniProt P0CE41, sequence (P0CE41 whole entry): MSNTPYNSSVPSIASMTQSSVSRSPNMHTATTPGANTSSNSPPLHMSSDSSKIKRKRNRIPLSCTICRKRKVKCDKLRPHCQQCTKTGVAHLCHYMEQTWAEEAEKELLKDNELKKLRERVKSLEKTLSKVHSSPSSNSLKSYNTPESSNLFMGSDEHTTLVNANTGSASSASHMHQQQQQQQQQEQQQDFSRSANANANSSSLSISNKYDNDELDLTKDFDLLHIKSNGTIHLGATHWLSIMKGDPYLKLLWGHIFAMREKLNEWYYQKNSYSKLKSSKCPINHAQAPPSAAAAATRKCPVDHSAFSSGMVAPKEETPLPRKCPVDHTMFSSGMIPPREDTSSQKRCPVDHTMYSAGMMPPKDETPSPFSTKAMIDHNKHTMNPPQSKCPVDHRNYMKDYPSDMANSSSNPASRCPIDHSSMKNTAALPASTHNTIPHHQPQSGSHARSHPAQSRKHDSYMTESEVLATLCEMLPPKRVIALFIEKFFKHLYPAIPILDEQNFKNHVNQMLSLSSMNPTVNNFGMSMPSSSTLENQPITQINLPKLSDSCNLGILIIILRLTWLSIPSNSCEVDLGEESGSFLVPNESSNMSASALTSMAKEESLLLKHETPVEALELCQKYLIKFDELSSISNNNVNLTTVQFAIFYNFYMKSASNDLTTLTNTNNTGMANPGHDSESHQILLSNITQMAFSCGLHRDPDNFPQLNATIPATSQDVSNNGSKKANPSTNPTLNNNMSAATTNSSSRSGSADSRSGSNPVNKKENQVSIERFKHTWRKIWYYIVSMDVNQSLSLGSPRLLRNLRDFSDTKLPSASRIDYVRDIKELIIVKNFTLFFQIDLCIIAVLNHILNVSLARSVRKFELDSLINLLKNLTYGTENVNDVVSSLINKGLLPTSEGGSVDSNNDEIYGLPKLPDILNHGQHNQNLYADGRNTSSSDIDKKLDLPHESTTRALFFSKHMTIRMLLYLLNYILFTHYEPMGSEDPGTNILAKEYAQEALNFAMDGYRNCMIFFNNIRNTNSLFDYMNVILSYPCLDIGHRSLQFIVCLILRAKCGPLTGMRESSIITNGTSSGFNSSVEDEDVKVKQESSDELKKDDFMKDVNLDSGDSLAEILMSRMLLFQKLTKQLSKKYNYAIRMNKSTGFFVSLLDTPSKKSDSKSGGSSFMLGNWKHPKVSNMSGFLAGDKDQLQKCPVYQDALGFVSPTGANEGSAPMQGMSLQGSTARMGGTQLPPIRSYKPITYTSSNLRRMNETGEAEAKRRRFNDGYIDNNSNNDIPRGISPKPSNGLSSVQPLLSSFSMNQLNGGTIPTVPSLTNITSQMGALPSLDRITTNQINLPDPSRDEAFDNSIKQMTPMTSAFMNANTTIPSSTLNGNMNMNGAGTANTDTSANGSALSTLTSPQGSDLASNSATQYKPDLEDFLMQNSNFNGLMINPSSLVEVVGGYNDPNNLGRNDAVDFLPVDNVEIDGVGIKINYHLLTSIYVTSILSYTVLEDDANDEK
row,Sequence,PBM E-score
1,ATCACTGA,-0.281
2,GAAATATA,0.197
3,CAAGAGAG,-0.166
4,CAGTCAGG,-0.35
5,CGCCTGTC,-0.0508
6,CACGCCGA,0.169
7,CCGACACG,0.222
8,ATGGGTGA,-0.0877
9,CTCTCTAC,-0.191
10,GGGCACCA,-0.0557
11,CGGTCGCA,0.186
12,GTTCCACA,-0.108
13,GGAGCCAC,-0.129
14,ACTATTAT,0.026
15,ACTGGTTC,0.0977
16,CCGCTGCG,0.078
17,ATGGTCTC,0.0286
18,ATCGAGCA,0.0429
19,CGCAGGCA,0.0216
20,ATACGTAA,-0.147
21,CCAACCAG,-0.189
22,CAAATGGG,-0.279
23,CTCTCCCC,0.057
24,CGTCACGA,-0.0775
25,CGGCTACA,0.118

row,Sequence,PBM E-score
1,GCTTTTCA,0.0791
2,AGGCACTC,-0.149
3,AATAGATA,-0.00886
4,GTCACGTA,-0.269
5,CTCGCGAG,-0.0254
6,AATGTTGT,-0.288
7,CGGTCCCA,0.206
8,CCGGCGAA,0.339
9,AATCCGGG,0.409
10,ACCCTGTC,-0.17
11,AGTAAGTA,-0.032
12,GGCATGAA,0.0616
13,CCGCGTCC,0.141
14,AATGTAAT,0.0955
15,AGAACGCC,0.132
16,GATTAACC,0.0378
17,AATGCAAA,-0.0137
18,GGCATCTA,-0.0235
19,GGACGTCA,0.0606
20,ATTCTTAG,-0.0927
21,ACAAACTA,-0.122
22,ACACCCTG,-0.163
23,AATTCTCG,0.046
24,CCCCCGTC,0.0755
25,AGCTCGAT,-0.133

row,Sequence,PBM E-score
1,GATCTGGA,-0.135
2,GAAGCTAA,-0.0495
3,GCTACTCC,0.0961
4,CTGTAAAA,-0.108
5,ACAGTATA,-0.0777
6,TATACCAA,0.00042
7,AGTTCTCA,-0.121
8,GTATTGAA,-0.108
9,CGGCGAAG,0.243
10,AAAAAATA,-0.0105
11,TCTGGCAA,-0.0495
12,GCTATCAA,-0.0105
13,AGGTTATG,-0.0174
14,CGCGCGTA,0.233
15,AACAAATC,-0.00416
16,TGTCTCAA,-0.209
17,GTCTACCA,-0.208
18,CTACGGCC,0.218
19,CGTTCCCC,0.0527
20,TGAATGCA,-0.0987
21,CGGGGCAC,0.0474
22,CCGGAATC,0.416
23,ACGATTTA,0.0229
24,GGAATCCA,0.101
25,GGTAACGA,-0.113

row,Sequence,PBM E-score
1,ACGTATGA,-0.0697
2,AGACAGTA,-0.134
3,AGGGGTAG,-0.109
4,GATTTTCA,0.0147
5,GAAAGCTA,0.115
6,AACGTCTG,-0.113
7,AATATCAT,-0.0352
8,AATCCTAA,-0.112
9,TCCACAAA,-0.0163
10,ACTCAACT,0.101
11,AAGCCACT,-0.0869
12,ACCCCTCC,-0.187
13,ACGAGACT,-0.17
14,AAGGAGAT,0.157
15,CTAGCAAA,-0.0109
16,ACCCTACA,-0.133
17,CCGCAGGC,0.0553
18,CATTCGAC,-0.0448
19,AAGCAGAA,-0.00453
20,CCTAGTGC,-0.106
21,AATTGGGC,-0.226
22,CGCCCCCA,-0.163
23,GCTACTAA,-0.0899
24,ATAGCATA,0.00421
25,GCCGGGGA,0.392

row,Sequence,PBM E-score
1,GGAGCCAA,0.0429
2,AACGCGGA,0.267
3,ATTAGGGG,0.123
4,ATGGTACA,-0.213
5,AGGGGTTG,-0.242
6,TGCGACAA,-0.0385
7,GAAGAAGC,-0.0752
8,ACCCGAAC,0.297
9,AGGAAGGG,-0.15
10,CTCTAGCA,-0.342
11,CGGCCGTA,0.417
12,AATCTTGG,-0.209
13,ACTGTAGC,-0.222
14,AAAAAAAA,-0.0113
15,CCGCCAGG,-0.118
16,TCCTCCCA,-0.0239
17,CAGTGAGC,-0.133
18,CACCCACA,-0.134
19,GATTATCC,0.125
20,CCACGGGA,0.0887
21,AGGTACAC,-0.108
22,TAGACCCA,-0.194
23,CGTTGAAA,-0.0519
24,ACGAGATG,-0.051
25,ATGCGATG,0.0271

row,Sequence,PBM E-score
1,GCGTAAAA,0.0774
2,GCTCTCTA,-0.299
3,TCACCAAA,-0.144
4,CTTTTAGC,-0.0909
5,CATTAGCC,0.0498
6,AGCCGACC,0.156
7,CCACTGAA,-0.0989
8,CTCTAAAC,-0.178
9,GCGAGCAA,-0.15
10,GGATGATA,-0.00353
11,AACTCTAA,0.0163
12,CTGGCCAG,-0.298
13,ACGCTCAA,-0.158
14,CGCGCCCG,0.29
15,AGCACAAG,-0.211
16,CGCAAATC,0.064
17,AAGCCTGT,-0.00721
18,CGACTGTC,-0.225
19,CGCCGCAC,0.0275
20,CTGCCACA,-0.138
21,CGAAAACA,0.0788
22,CAGGCTAA,-0.198
23,GTTACCTA,-0.281
24,CGAGAGCA,0.062
25,ATTTCCGC,0.399

row,Sequence,PBM E-score
1,AGATCCGA,0.359
2,AATTTCCC,0.06
3,ATCCCCTA,-0.144
4,AGACCGGA,0.334
5,AACCGGTC,0.272
6,CTTGAAAA,-0.246
7,ATCCCGAA,0.295
8,TAAATTGA,-0.11
9,AATGTTCT,-0.226
10,AGAGCATG,-0.165
11,TGCATACA,-0.1
12,CGGTACTA,0.323
13,GTAGTCTA,-0.238
14,CTACTAAG,-0.0276
15,AAATAGGT,-0.114
16,ACCTGAAG,-0.127
17,GCGGACGA,0.366
18,AGCGCGTA,-0.0111
19,AGTAAACT,-0.126
20,CGGCAGAG,0.111
21,AAGTCATG,-0.037
22,CACTGAGA,-0.276
